The values that follow come from PubChem BioAssay (NCI).

Where “and” joins values, the source holds several entries; their conditions need not be identical. Identical values can stand only once.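 Values below derive from 48-hour exposures of cells grown in 96-well plates, with endpoints linearly interpolated between the two concentrations bracketing the appropriate inhibition level. GI50 = concentration required for 50% inhibition of growth. At the TGI there is no net growth.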

For the experiment, the system named is NCI-H322M lung. Description: NCI tumour cell line growth inhibition, 48 h.
As to `O=C(/C=C/c1ccc(Cl)cc1)c1ccc(Nc2nc(Nc3ccc(F)cc3)nc(Nc3ccc(F)cc3)n2)cc1`, the GI50 was over 100 µM and the TGI was over 100 µM. For the compound `O=C(c1ccc(Cl)cc1)c1no[n+]([O-])c1C(=O)c1ccc(Cl)cc1`, the GI50 is 37.2 µM and the TGI is over 100 µM. `CCOC(=O)C1C(O)CC2c3ccccc3-c3ccccc3C21` (centres undefined) showed a TGI of over 100 µM. Consider `CCO/C=N/C1=C(C#N)C(c2ccc(OC)cc2)c2sc3c(F)cccc3c2O1` (centres undefined), for which the GI50 was 6.27 µM and the TGI was over 100 µM.

`OC1c2ccccc2CCC1C(O)(C(F)(F)F)C(F)(F)F` (centres undefined) registered a TGI of over 100 µM. The same measure, in the same setting: the figure for `O=C(c1nc2ccc(Cl)cc2[nH]c1=O)C(O)c1ccccc1` (centres undefined) is over 100 µM; for `CC/C=C/C[C@H](O[Si](C)(C)C(C)(C)C)[C@H]1C[C@H]2O[C@H]([C@@H](O)C#C[Si](C)(C)C)C[C@H]2O1` it is 27.6 µM; for `CCOC(=O)C(C)c1c(C(=O)c2ccc(C)nc2)c2ccccc2n1C` (centres undefined) it is over 100 µM.

As for `CC(=O)NS(=O)(=O)c1ccc(-n2nc(-c3ccc(Cl)cc3)cc2-c2cc(O)ccc2O)cc1`, the GI50 was 21.4 µM and the TGI came out at 72.6 µM. `C[C@H](CCC(=O)O)[C@H]1CC[C@H]2[C@@H]3CC[C@@H]4C[C@H](O)CC[C@]4(C)[C@H]3CC[C@]12C`: the GI50 is > 100 µM and 28.1 µM; the TGI is over 100 µM. In the case of `O=C1C(c2c(O)[nH]c3ccc([N+](=O)[O-])cc23)=Nc2ccccc21`, the TGI is over 100 µM. With `Cn1ncc(NC(=O)c2nc(-c3c(F)cccc3F)sc2N)c1N1CC[C@@H](N)[C@H](F)CC1`, the GI50 was 4 µM and the TGI came to 55.3 µM. For `CC(C)=CCC/C(C)=C/CC/C(C)=C/CC/C(C)=C/CSC[C@H](NC(=O)CCCCCN1CCN(C)CC1)C(=O)NC1CCCCC1`, in that order: 7.49 µM and 24.5 µM. On to `COc1cc2c(cc1I)-c1c(cc(OC)c(OC)c1OC)CC[C@@H]2NC(C)=O`, for which the GI50 is 0.577 µM and the TGI was over 91.7 µM. On to `CC[C@]12C=CCN3CC[C@@]4(c5cc(N=O)c(OC)cc5N(C)[C@H]4[C@@](O)(C(=O)NC(Cc4c[nH]c5ccccc45)C(=O)OC)[C@@H]1O)[C@@H]32` (some centres undefined), for which the TGI stood at 28.6 µM. Regarding `CCOCCOC(=O)C1CCC(=O)N1CN(C(C)=O)c1cc(OC)ccc1OC` (centres undefined), the TGI was over 100 µM.

Compound `COc1cc(/C=N/n2c(-c3ccccc3)n[nH]c2=O)cc(OC)c1OC` displayed a TGI of over 100 µM. Regarding `C=CCOC(C)n1c(C)cc(=O)n(C(C)OCC=C)c1=O` (centres undefined), the TGI is over 100 µM. In the case of `O=C1C=CC(=O)c2cc3cc(CO)ccc3cc21`, the GI50 was 26.7 µM and the TGI was determined as 53.4 µM. In the case of `C#CCn1cnc2cnc(Nc3cccc(NC(=O)CCl)c3)nc21`, the GI50 is 30 µM and the TGI was over 62.5 µM.

`C=C1C(=O)O[C@H]2[C@H]1CC/C(COC(=O)/C=C/C(=O)NCc1ccc(Cn3c(=O)sn(-c4ccccc4)c3=O)cc1)=C\CC[C@@]1(C)O[C@@H]21`: the GI50 is 14.5 µM and the TGI was 30 µM. `CNCCCCN(C)/[N+]([O-])=N\O` yielded a TGI of over 100 µM. Same read-out and setting: the figure for `CCCCCCCCCCCCCCCC/C(C(=O)OC)=C(/O)C(=O)OCC` is over 100 µM.
